Laboratory results published in ChEMBL document CHEMBL4888484, “Replenishing the malaria drug discovery pipeline: Screening and hit evaluation of the MMV Hit Generation Library 1 (HGL1) against asexual blood stage Plasmodium falciparum ,using a nano luciferase reporter read-out” (2022).
The campaign covered roughly 150,000 compounds. About 540 (0.36%) showed an effect of 50% or more. The list shows a part of the results.

Each compound was assayed on Plasmodium falciparum (assay: Primary screen in NF54 nanoGlo assay, in single point, at 2uM, 72h; a lower Z score goes with more inhibition). Conditions: timepoint 72 hour.
Format: functional, Erythrocyte
CCCN1C(=O)c2ccccc2C(C(=O)N2CCN(C(C)=O)CC2)C1c1ccc2c(c1)OCO2 (centres undefined) was tested, and the “% Inhibition” value was -2% and the Z score was 0.42.
For Cc1nn(-c2ncnc3[nH]cnc23)c2c1[C@H](C(C)(C)C)CC(=O)N2, the “% Inhibition” value was 1% and the Z score was -0.17.
c1ccc(-n2nc(CC3CC3)cc2NCc2cnc3ccccn23)cc1 was tested, and the “% Inhibition” value was -17% and the Z score was 2.41.
In the case of CC(=O)N1CCC(C(=O)NCCn2c(C)cnc2-c2ccccc2)CC1, the “% Inhibition” value is reported as -11% and the Z score is reported as 1.24.
For CC(C)c1nccc(NC[C@]2(c3ccccc3)C[C@H](O)C2)n1, the “% Inhibition” value was 8% and the Z score was -1.49.
For COC(=O)C(C)(C)[C@H]1CCCN(C(=O)CCNC(=O)c2ccncc2)C1, the “% Inhibition” value was -10% and the Z score was 1.76.
In the case of CCC1CC(C(=O)N2CCN(Cc3ccccc3)CCC2C)CCO1 (centres undefined), the “% Inhibition” value is reported as -15% and the Z score is reported as 2.32.
C=CCN1C(=O)c2ccccc2N[C@]1(C)CCc1ccccc1 was tested, and the “% Inhibition” value was 4% and the Z score was -0.7.
CNC(=O)[C@@H]1CCCCN1Cc1cccc2nonc12 was tested, and the “% Inhibition” value was -17% and the Z score was 3.24.
With COCCOCC(=O)NCc1ccc(-c2scnc2C)cc1 the “% Inhibition” value was -14% and the Z score was 1.82.
CCN1C[C@@H](CNC(=O)N(C)Cc2csc(-c3ccccc3)n2)CC1=O was tested, and the “% Inhibition” value was -16% and the Z score was 2.11.
In the case of Cc1cc(NC(=O)CNc2ccc(-n3cccn3)c(Cl)c2)on1, the “% Inhibition” value is reported as -6% and the Z score is reported as 1.13.
With C[C@H]1CCCN(C(=O)CCn2cnccc2=O)c2ccccc21 the “% Inhibition” value was -6% and the Z score was 0.9.
In the case of Cc1cccc(-n2cnc3cc(C(=O)N4CCOC[C@H]4C(=O)O)ccc32)c1, the “% Inhibition” value is reported as 2% and the Z score is reported as -0.41.
For CCN(C)C[C@@H]1CN(C(=O)C(=O)CCc2ccccc2)C[C@@H]1CO, the “% Inhibition” value was 10% and the Z score was -1.34.
In the case of C[C@H](Oc1cnc2ccccc2c1)C(=O)Nc1c[nH]c(C(N)=O)c1, the “% Inhibition” value is reported as -5% and the Z score is reported as 0.52.
With Cc1nc(C(=O)NC(c2ccccc2)c2ccccc2)co1 the “% Inhibition” value was -15% and the Z score was 2.65.
CC1CCC(N2CC(C(=O)NCC3CCCOC3C(C)(C)C)CC2=O)CC1 (centres undefined) was tested, and the “% Inhibition” value was -4% and the Z score was 0.58.
With CC(C)(C)OC(=O)C1(C(=O)N[C@H]2CC[C@@H](CO)CC2)CCC1 the “% Inhibition” value was -7% and the Z score was 1.38.
In the case of C=CCC1(CC=C)CCCCN1C(=O)C[C@H]1C(=O)N(C)C(=O)N1C, the “% Inhibition” value is reported as -13% and the Z score is reported as 1.65.
With N[C@H](c1ccc(F)c(Cl)c1)C(F)(F)F the “% Inhibition” value was 7% and the Z score was -0.93.
Cc1csc(CCC(=O)N2CC(C)[S+]([O-])C(C)C2)n1 (centres undefined) was tested, and the “% Inhibition” value was -1% and the Z score was 0.23.
Cc1cc(C)cc(N2CCC(NCc3n[nH]c(N)n3)CC2)c1 was tested, and the “% Inhibition” value was 5% and the Z score was -0.68.
For COc1cc(C#N)c(Br)c(Br)c1OC, the “% Inhibition” value was 0% and the Z score was -0.03.
With COc1nc(CNC(=O)[C@H](C)n2cccn2)nc(N2CCOCC2)n1 the “% Inhibition” value was -17% and the Z score was 2.13.
CC(=O)NCCCNC(=O)NCC1(C)CCCCCC1 was tested, and the “% Inhibition” value was -13% and the Z score was 1.29.
Cn1ccnc1C(=O)NCc1ccc(-c2ncon2)cc1 was tested, and the “% Inhibition” value was -2% and the Z score was 0.32.
With CCC(=O)Nc1ccc(-n2cnc(C(=O)NCc3ccco3)c2)nc1 the “% Inhibition” value was 39% and the Z score was -5.59.
CCN(CC(=O)Nc1ccc(NC(C)=O)cc1)S(=O)(=O)N(C)Cc1c(F)cccc1Cl was tested, and the “% Inhibition” value was -2% and the Z score was 0.27.
CCOc1nc(C(=O)N(C)c2ccc(C(F)(F)F)nn2)co1 was tested, and the “% Inhibition” value was -8% and the Z score was 1.58.
In the case of CN(CCc1ccccn1)[C@H]1CCCN(S(=O)(=O)c2cccc3cccnc23)C1, the “% Inhibition” value is reported as -6% and the Z score is reported as 0.92.
In the case of N#Cc1ccc(NC2CCC(F)C2)nc1 (centres undefined), the “% Inhibition” value is reported as 3% and the Z score is reported as -0.35.
For Cc1csc([C@@H](C)C(=O)NCc2nc(C(N)=O)co2)n1, the “% Inhibition” value was -9% and the Z score was 1.38.
COc1ccc(N(CC(=O)c2cc(C)n(OCc3ccccc3)c2C)S(=O)(=O)c2ccccc2)cc1 was tested, and the “% Inhibition” value was -22% and the Z score was 3.62.
COC1CS(=O)(=O)CC1NC(=O)NCc1cc(Cl)sc1Cl (centres undefined) was tested, and the “% Inhibition” value was 8% and the Z score was -1.41.
For Cc1ccsc1C(C)NC[C@H]1CCCN1S(C)(=O)=O (some centres undefined), the “% Inhibition” value was -13% and the Z score was 1.43.
COc1cccn(CC(=O)N(C)C[C@H]2COc3ccccc3O2)c1=O was tested, and the “% Inhibition” value was -15% and the Z score was 1.74.
In the case of CCCn1c(C(=O)NCCOC)cc2cc(NS(=O)(=O)c3ccc(Cl)cc3)ccc21, the “% Inhibition” value is reported as -15% and the Z score is reported as 1.83.
For N#Cc1cccc(Cn2cnc3c2c(=O)n(CC2CC2)c(=O)n3-c2ccc(Cl)cc2)c1, the “% Inhibition” value was -8% and the Z score was 1.22.
Cc1ccc(N(C)S(=O)(=O)c2c(-c3ccccc3)csc2C(=O)NCc2cccnc2)cc1C was tested, and the “% Inhibition” value was -8% and the Z score was 0.92.
With Cc1ccc(Cl)cc1NC(=O)[C@@H]1CN(S(=O)(=O)c2ccccc2)c2cc(C(C)(C)C)ccc2O1 the “% Inhibition” value was 1% and the Z score was -0.11.
In the case of Fc1cccc2c(NCc3ccc(CN4CCCC4)cc3)ncnc12, the “% Inhibition” value is reported as -1% and the Z score is reported as 0.09.
CN(C)S(=O)(=O)c1ccc(C(=O)NCc2nccnc2-c2ccncc2)cc1 was tested, and the “% Inhibition” value was 9% and the Z score was -1.14.
COC[C@H]1CN(C)CC12CCN(C(=O)Cc1ccc(Cl)cc1)CC2 was tested, and the “% Inhibition” value was 9% and the Z score was -1.07.
In the case of O=C(COc1ccccc1)N1CCOC[C@H](Oc2ccc(C(F)(F)F)cn2)C1, the “% Inhibition” value is reported as -21% and the Z score is reported as 3.33.
With O=C(Nc1cccc2ccccc12)c1ccc2c(c1)OCCO2 the “% Inhibition” value was -8% and the Z score was 1.05.
Cc1cc(C)n2ncc(-c3noc(-c4ccnn4C4CCCC4)n3)c2n1 was tested, and the “% Inhibition” value was -6% and the Z score was 0.65.
CCN(Cc1ccccc1)C(=O)[C@H]1CCN(c2cn[nH]c(=O)c2)C1 was tested, and the “% Inhibition” value was -16% and the Z score was 2.24.
With CC(=O)c1ccc(N2CCN(/C(=N\c3ccc(C(=O)O)cc3)NC[C@H]3CCCO3)CC2)cc1 the “% Inhibition” value was 5% and the Z score was -0.48.
In the case of CCn1cc(-c2cc(C(=O)N3CCCN(C)C[C@@H]3C)c3ccccc3n2)cn1, the “% Inhibition” value is reported as -8% and the Z score is reported as 1.32.
For COc1ccc(Cl)cc1N1CC[C@H](NC(=O)CCn2cncn2)C1, the “% Inhibition” value was 0% and the Z score was -0.04.
With CCN1CC2(CCN(Cc3cccc(O)c3)CC2)C[C@@H](c2ccccc2)C1=O the “% Inhibition” value was 13% and the Z score was -1.74.
